Source: article PMC12222028
Results are given in words; binding and its absence hold for the method and conditions named. Binding seen in cells or lysates may run through a third protein. Some results given as binding are weak or reduced against the parent protein; the word gives no strength. Each block holds one binder with its values, some of them ahead of it.

Chains of the proteins cited; added tags and fusions are not shown.
UniProt O43747: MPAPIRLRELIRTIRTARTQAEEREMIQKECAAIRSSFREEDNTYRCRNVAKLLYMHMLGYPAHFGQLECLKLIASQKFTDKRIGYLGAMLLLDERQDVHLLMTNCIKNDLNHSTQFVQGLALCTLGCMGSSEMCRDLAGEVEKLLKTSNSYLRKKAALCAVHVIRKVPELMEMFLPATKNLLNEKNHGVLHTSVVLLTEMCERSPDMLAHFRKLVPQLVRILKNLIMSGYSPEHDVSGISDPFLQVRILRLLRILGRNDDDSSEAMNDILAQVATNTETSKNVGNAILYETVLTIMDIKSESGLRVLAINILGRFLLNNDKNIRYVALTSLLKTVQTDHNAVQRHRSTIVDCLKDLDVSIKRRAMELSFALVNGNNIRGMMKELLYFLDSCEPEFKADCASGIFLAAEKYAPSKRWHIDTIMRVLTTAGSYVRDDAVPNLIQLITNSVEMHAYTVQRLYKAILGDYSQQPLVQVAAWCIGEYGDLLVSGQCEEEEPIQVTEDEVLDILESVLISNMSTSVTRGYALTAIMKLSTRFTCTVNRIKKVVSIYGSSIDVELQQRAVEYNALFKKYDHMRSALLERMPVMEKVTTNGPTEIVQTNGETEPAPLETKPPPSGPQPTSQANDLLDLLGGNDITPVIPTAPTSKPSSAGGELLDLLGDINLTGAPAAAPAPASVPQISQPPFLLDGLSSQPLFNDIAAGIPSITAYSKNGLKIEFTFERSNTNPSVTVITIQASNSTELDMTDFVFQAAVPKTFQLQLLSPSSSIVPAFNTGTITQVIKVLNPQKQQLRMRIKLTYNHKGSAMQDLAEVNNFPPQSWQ

Columns and labels:
Assay in all cases: cross-linking; XL-MS: intact early endosomes (Endo-IP, HEK293 cells expressing Flag-EEA1, eluted with 3xFlag peptide, no detergent) cross-linked with 1 mM DSSO in KPBS at room temperature for 40 min; XlinkX, 5% FDR
[1] = target: AP1G1 (human (endogenous in HEK293)) (UniProt O43747)
[2] = target: T1, CLCN7 (human (endogenous in HEK293)) (UniProt P51798)
T1 sequence: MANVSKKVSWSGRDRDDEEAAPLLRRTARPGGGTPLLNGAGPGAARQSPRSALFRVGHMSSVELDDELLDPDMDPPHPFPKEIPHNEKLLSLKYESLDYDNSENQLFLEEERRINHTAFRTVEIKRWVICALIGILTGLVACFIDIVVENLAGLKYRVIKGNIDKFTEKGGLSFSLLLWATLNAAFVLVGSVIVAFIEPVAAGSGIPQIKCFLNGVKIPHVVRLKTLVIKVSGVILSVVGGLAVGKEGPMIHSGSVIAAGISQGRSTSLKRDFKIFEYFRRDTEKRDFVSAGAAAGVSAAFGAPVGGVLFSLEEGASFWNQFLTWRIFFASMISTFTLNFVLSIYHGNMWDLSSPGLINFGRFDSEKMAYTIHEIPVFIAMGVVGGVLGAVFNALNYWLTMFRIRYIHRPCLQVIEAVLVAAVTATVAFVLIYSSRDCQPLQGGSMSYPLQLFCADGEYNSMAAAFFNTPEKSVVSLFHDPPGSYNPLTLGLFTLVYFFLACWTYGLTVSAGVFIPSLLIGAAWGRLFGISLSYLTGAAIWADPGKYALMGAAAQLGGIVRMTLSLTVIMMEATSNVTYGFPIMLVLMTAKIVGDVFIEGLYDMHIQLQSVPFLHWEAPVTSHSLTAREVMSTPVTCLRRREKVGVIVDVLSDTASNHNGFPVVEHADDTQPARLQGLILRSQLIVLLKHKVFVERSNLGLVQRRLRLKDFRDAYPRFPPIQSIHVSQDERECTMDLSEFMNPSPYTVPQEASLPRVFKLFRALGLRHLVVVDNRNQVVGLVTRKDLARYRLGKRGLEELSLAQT

[3] = target: T2, FLOT2 (human (endogenous in HEK293)) (UniProt Q14254)
T2 sequence: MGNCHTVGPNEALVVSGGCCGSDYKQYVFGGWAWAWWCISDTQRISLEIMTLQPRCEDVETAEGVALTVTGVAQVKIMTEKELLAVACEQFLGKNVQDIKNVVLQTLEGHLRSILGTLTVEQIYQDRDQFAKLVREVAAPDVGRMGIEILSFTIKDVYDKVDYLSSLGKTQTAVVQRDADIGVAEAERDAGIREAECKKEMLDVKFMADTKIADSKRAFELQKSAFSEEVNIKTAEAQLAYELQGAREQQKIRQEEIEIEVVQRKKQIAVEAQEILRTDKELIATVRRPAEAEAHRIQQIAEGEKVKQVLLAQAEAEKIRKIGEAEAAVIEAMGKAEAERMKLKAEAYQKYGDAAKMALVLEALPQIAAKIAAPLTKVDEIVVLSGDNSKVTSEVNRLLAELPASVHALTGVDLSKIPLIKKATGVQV

[4] = target: T3, STX8 (human (endogenous in HEK293)) (UniProt Q9UNK0)
T3 sequence: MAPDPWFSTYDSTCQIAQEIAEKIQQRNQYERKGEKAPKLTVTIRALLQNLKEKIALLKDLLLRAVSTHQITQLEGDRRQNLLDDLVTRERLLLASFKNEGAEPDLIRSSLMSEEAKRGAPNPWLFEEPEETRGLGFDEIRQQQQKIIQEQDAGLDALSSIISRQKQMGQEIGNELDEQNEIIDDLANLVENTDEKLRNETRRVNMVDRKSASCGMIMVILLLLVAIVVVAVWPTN

[5] = target: T4, RMC1 (human (endogenous in HEK293)) (UniProt Q96DM3)
T4 sequence: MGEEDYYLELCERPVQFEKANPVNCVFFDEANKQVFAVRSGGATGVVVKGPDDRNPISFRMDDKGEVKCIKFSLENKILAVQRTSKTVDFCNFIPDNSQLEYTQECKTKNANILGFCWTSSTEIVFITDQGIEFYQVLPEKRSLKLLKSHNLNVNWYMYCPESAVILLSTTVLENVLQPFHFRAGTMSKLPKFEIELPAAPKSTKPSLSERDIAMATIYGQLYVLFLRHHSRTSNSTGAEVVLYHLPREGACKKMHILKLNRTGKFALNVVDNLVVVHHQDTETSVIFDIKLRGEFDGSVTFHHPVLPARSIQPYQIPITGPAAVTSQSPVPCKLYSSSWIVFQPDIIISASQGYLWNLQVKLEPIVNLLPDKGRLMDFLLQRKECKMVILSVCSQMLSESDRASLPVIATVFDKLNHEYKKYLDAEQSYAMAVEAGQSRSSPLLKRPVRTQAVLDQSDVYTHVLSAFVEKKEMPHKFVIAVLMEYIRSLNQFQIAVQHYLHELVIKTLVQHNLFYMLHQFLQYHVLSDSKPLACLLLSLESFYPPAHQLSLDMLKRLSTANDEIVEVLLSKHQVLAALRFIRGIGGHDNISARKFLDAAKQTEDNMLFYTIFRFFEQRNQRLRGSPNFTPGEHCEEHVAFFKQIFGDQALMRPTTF

- binding [1]: binds
B1: AP1S2 (protein, UniProt P56377 1-157)
chain: MQFMLLFSRQGKLRLQKWYVPLSDKEKKKITRELVQTVLARKPKMCSFLEWRDLKIVYKRYASLYFCCAIEDQDNELITLEIIHRYVELLDKYFGSVCELDIIFNFEKAYFILDEFLLGGEVQETSKKNVLKAIEQADLLQEEAETPRSVLEEIGLT

- binding [2]: binds
B2: OSTM1 (protein, UniProt Q86WC4 32-334)
chain: ALPFGSSPHRVFHDLLSEQQLLEVEDLSLSLLQGGGLGPLSLPPDLPDLDPECRELLLDFANSSAELTGCLVRSARPVRLCQTCYPLFQQVVSKMDNISRAAGNTSESQSCARSLLMADRMQIVVILSEFFNTTWQEANCANCLTNNSEELSNSTVYFLNLFNHTLTCFEHNLQGNAHSLLQTKNYSEVCKNCREAYKTLSSLYSEMQKMNELENKAEPGTHLCIDVEDAMNITRKLWSRTFNCSVPCSDTVPVIAVSVFILFLPVVFYLSSFLHSEQKKRKLILPKRLKSSTSFANIQENSN

- binding [3]: binds
B3: FLOT1 (protein, UniProt O75955 1-427)
chain: MFFTCGPNEAMVVSGFCRSPPVMVAGGRVFVLPCIQQIQRISLNTLTLNVKSEKVYTRHGVPISVTGIAQVKIQGQNKEMLAAACQMFLGKTEAEIAHIALETLEGHQRAIMAHMTVEEIYKDRQKFSEQVFKVASSDLVNMGISVVSYTLKDIHDDQDYLHSLGKARTAQVQKDARIGEAEAKRDAGIREAKAKQEKVSAQYLSEIEMAKAQRDYELKKAAYDIEVNTRRAQADLAYQLQVAKTKQQIEEQRVQVQVVERAQQVAVQEQEIARREKELEARVRKPAEAERYKLERLAEAEKSQLIMQAEAEAASVRMRGEAEAFAIGARARAEAEQMAKKAEAFQLYQEAAQLDMLLEKLPQVAEEISGPLTSANKITLVSSGSGTMGAAKVTGEVLDILTRLPESVERLTGVSISQVNHKPLRTA

- binding [4]: binds
B4: VPS16 (protein, UniProt Q9H269 1-839)
chain: MDCYTANWNPLGDSAFYRKYELYSMDWDLKEELRDCLVAAAPYGGPIALLRNPWRKEKAASVRPVLDIYSASGMPLASLLWKSGPVVSLGWSAEEELLCVQEDGAVLVYGLHGDFRRHFSMGNEVLQNRVLDARIFHTEFGSGVAILTGAHRFTLSANVGDLKLRRMPEVPGLQSAPSCWTVLCQDRVAHILLAVGPDLYLLDHAACSAVTPPGLAPGVSSFLQMAVSFTYRHLALFTDTGYIWMGTASLKEKLCEFNCNIRAPPKQMVWCSRPRSKERAVVVAWERRLMVVGDAPESIQFVLDEDSYLVPELDGVRIFSRSTHEFLHEVPAASEEIFKIASMAPGALLLEAQKEYEKESQKADEYLREIQELGQLTQAVQQCIEAAGHEHQPDMQKSLLRAASFGKCFLDRFPPDSFVHMCQDLRVLNAVRDYHIGIPLTYSQYKQLTIQVLLDRLVLRRLYPLAIQICEYLRLPEVQGVSRILAHWACYKVQQKDVSDEDVARAINQKLGDTPGVSYSDIAARAYGCGRTELAIKLLEYEPRSGEQVPLLLKMKRSKLALSKAIESGDTDLVFTVLLHLKNELNRGDFFMTLRNQPMALSLYRQFCKHQELETLKDLYNQDDNHQELGSFHIRASYAAEERIEGRVAALQTAADAFYKAKNEFAAKATEDQMRLLRLQRRLEDELGGQFLDLSLHDTVTTLILGGHNKRAEQLARDFRIPDKRLWWLKLTALADLEDWEELEKFSKSKKSPIGYLPFVEICMKQHNKYEAKKYASRVGPEQKVKALLLVGDVAQAADVAIEHRNEAELSLVLSHCTGATDGATADKIQRARAQAQKK

- binding [5]: binds
B5: CLCN7 (protein, UniProt P51798 1-805)
chain: MANVSKKVSWSGRDRDDEEAAPLLRRTARPGGGTPLLNGAGPGAARQSPRSALFRVGHMSSVELDDELLDPDMDPPHPFPKEIPHNEKLLSLKYESLDYDNSENQLFLEEERRINHTAFRTVEIKRWVICALIGILTGLVACFIDIVVENLAGLKYRVIKGNIDKFTEKGGLSFSLLLWATLNAAFVLVGSVIVAFIEPVAAGSGIPQIKCFLNGVKIPHVVRLKTLVIKVSGVILSVVGGLAVGKEGPMIHSGSVIAAGISQGRSTSLKRDFKIFEYFRRDTEKRDFVSAGAAAGVSAAFGAPVGGVLFSLEEGASFWNQFLTWRIFFASMISTFTLNFVLSIYHGNMWDLSSPGLINFGRFDSEKMAYTIHEIPVFIAMGVVGGVLGAVFNALNYWLTMFRIRYIHRPCLQVIEAVLVAAVTATVAFVLIYSSRDCQPLQGGSMSYPLQLFCADGEYNSMAAAFFNTPEKSVVSLFHDPPGSYNPLTLGLFTLVYFFLACWTYGLTVSAGVFIPSLLIGAAWGRLFGISLSYLTGAAIWADPGKYALMGAAAQLGGIVRMTLSLTVIMMEATSNVTYGFPIMLVLMTAKIVGDVFIEGLYDMHIQLQSVPFLHWEAPVTSHSLTAREVMSTPVTCLRRREKVGVIVDVLSDTASNHNGFPVVEHADDTQPARLQGLILRSQLIVLLKHKVFVERSNLGLVQRRLRLKDFRDAYPRFPPIQSIHVSQDERECTMDLSEFMNPSPYTVPQEASLPRVFKLFRALGLRHLVVVDNRNQVVGLVTRKDLARYRLGKRGLEELSLAQT
